According to publication PMC3973303:
Results are given in words; binding and its absence hold for the method and conditions named. For some assays here: In cells and extracts the contact can be indirect. Some results given as binding are weak or reduced against the parent protein; the word gives no strength. For some assays here: Tags and fused reporters may be left off the sequences shown.

Sequences of proteins named here, by UniProt entry; tags and fusion partners are left off.
UniProt P09651: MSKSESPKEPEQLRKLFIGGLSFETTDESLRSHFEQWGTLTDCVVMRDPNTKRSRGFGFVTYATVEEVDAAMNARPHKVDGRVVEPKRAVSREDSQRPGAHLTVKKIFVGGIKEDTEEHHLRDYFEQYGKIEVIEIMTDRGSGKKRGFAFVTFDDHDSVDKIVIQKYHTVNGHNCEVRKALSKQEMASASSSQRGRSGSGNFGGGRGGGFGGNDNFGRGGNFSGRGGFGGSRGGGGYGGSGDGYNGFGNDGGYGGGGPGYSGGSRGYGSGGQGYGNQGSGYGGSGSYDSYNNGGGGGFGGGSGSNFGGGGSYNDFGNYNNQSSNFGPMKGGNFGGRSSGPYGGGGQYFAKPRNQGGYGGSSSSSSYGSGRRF
UniProt Q9H814: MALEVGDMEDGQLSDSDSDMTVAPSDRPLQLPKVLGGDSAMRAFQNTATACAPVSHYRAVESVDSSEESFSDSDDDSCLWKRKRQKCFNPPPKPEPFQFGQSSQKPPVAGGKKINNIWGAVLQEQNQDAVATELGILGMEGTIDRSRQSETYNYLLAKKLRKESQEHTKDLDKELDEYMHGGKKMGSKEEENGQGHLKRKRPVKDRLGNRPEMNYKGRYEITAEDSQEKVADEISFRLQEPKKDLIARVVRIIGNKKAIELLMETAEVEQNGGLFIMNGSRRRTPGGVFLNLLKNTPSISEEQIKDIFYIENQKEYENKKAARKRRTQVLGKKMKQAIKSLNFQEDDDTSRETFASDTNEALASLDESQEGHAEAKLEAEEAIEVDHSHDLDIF
UniProt O14980: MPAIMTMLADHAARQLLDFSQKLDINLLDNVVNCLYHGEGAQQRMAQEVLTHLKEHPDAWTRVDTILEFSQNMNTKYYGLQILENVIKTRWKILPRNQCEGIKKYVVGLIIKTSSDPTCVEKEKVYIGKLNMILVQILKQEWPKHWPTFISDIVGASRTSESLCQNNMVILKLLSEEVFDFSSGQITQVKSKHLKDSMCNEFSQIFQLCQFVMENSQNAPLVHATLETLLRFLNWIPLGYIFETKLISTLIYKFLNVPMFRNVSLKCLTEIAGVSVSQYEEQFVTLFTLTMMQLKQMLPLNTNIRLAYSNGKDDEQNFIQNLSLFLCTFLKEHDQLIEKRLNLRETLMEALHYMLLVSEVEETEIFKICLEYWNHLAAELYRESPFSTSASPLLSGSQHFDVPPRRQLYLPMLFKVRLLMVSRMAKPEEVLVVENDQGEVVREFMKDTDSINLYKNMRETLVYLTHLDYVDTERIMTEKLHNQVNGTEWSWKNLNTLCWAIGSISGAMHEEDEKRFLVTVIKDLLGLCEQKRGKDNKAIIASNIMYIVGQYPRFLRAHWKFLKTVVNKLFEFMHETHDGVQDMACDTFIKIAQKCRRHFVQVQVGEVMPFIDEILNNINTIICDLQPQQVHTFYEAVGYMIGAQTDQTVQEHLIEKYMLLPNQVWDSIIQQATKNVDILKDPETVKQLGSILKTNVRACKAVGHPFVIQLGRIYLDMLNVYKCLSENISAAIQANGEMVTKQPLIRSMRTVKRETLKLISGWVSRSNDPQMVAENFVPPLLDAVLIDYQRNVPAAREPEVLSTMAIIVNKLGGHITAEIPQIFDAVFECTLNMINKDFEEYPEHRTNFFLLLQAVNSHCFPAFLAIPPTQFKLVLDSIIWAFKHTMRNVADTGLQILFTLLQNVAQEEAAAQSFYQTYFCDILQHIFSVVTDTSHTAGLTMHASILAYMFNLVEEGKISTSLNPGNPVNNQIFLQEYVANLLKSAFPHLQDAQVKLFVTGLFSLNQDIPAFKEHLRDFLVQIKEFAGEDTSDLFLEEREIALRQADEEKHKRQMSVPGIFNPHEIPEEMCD

Assays:
recombinant hnRNP A1 = recombinant hnRNP A1 (UniProt P09651); test: co-IP; purified recombinant proteins (20 μg) rotated with Protein A Sepharose beads pre-bound with anti-p54nrb, anti-PSF or anti-Myc, with 1 mg/ml RNase A in 150 μl RSB150N buffer (10 mM Tris-Cl pH 7.5, 150 mM NaCl, 2.5 mM MgCl2, 0.1% NP-40); western blotting; both purified
[1] = target: T1, recombinant human PSF with N-terminal His-tags (human) (UniProt P23246); test: as above
T1 sequence: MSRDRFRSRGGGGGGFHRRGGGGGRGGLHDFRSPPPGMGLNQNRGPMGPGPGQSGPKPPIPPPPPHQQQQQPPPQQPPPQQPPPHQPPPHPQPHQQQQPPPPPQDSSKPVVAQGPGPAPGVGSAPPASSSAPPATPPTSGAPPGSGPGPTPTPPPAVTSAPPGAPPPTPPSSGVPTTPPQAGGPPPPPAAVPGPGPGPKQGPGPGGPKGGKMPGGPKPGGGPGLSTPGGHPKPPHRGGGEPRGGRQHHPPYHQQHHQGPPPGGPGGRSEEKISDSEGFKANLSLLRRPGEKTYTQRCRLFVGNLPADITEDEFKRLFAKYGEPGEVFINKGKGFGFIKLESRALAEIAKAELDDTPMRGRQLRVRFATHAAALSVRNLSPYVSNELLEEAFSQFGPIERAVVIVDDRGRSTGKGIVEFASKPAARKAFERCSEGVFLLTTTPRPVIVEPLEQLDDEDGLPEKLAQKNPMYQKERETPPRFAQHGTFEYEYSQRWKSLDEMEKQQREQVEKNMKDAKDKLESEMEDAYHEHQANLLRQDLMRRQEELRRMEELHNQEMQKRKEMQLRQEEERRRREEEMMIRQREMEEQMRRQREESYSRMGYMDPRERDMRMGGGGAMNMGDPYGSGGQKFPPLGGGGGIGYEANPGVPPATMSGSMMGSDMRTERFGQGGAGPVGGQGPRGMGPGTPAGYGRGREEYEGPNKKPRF

[2] = target: T2, recombinant human p54nrb/NonO (human) (UniProt Q15233); test: as above
T2 sequence: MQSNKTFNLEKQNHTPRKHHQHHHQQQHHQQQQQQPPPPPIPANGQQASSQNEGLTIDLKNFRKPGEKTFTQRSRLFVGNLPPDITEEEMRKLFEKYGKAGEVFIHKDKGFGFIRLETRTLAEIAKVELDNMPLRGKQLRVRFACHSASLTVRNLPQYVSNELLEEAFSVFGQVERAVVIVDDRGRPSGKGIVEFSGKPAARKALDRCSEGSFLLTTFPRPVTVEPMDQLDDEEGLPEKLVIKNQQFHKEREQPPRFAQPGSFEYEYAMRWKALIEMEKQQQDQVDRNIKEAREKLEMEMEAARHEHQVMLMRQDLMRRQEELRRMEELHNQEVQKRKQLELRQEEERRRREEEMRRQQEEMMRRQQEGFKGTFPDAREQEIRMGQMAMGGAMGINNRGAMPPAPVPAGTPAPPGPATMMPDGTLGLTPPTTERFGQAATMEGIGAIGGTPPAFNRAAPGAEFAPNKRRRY

[3] = target: GST-PHAX fusion protein (phosphorylated adaptor for RNA export) (UniProt Q9H814); test: pull-down; GST-PHAX or GST (0.2 µM each) mixed with p54nrb or PSF in the absence or presence of RNase A; GST pull-down, precipitate analysed by western blotting; both purified
flag-tagged PHAX = flag-tagged PHAX (UniProt Q9H814); test: co-IP; FLAG-PHAX transiently expressed in HeLa cells, fixed with 1% formaldehyde, lysed in mRIPA buffer by sonication; anti-FLAG M2 affinity gel, 2 h at 4°C; western blotting

recombinant CRM1 (from UniProt O14980 1-1071)
binding (recombinant hnRNP A1): no binding (tested: 20 μg protein in 150 μl) | binding [1]: binds | binding [2]: binds

B1: recombinant human p54nrb/NonO (protein, UniProt Q15233 1-471)
chain: T2 sequence
binding [3]: binds

B2: endogenous p54nrb/NonO (HeLa) (protein, UniProt Q15233 1-471)
chain: T2 sequence
binding (flag-tagged PHAX): binds
